# Measured values as given in PubChem BioAssay AID1460 (National Center for Advancing Translational Sciences (NCATS), 2008).
# Several values for one entry are separate records, joined by “and”; a condition that tells them apart may be missing. Identical values can stand only once. About 5,800 (2.1%) of roughly 270,000 compounds were called active. Inconclusive results, whose numbers are uncertain, are shown with a selection of clear calls. Calls follow the shape of the dose curve; as a rule, active = well fitted inhibition curve with a large enough effect; inconclusive = small, poorly fitted or top-dose-only effect; inactive = flat fitted curve, though single readings scatter. A potency beside an inconclusive call is a rough fit, not a confirmed value.
# Target: Microtubule-associated protein tau (Homo sapiens) (UniProt P10636)
# Experiment: qHTS for Inhibitors of Tau Fibril Formation, Thioflavin T Binding; also: nearly all actives have a fitted effect of over 55% in size
# Conditions: recombinant tau K18 P301L (four-repeat tau fragment), heparin-induced fibrillization, ThT fluorescence; series mostly up to 57.4 µM
# How it was run: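 Recombinant human tau K18 fragment […] carrying P301L, 15 uM unlabeled plus 0.24 uM Alexa 594-labeled, was fibrillized with 20 uM heparin in 100 mM sodium acetate pH 7 for 6 hr at 37 C; 30 uM ThT fluorescence read after 1 hr.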
# Potency is read from the fitted curve at half-maximal effect; tags tell the direction and shape of the fitted curve.
# Sequence of UniProt P10636 (P10636 whole entry, looked up): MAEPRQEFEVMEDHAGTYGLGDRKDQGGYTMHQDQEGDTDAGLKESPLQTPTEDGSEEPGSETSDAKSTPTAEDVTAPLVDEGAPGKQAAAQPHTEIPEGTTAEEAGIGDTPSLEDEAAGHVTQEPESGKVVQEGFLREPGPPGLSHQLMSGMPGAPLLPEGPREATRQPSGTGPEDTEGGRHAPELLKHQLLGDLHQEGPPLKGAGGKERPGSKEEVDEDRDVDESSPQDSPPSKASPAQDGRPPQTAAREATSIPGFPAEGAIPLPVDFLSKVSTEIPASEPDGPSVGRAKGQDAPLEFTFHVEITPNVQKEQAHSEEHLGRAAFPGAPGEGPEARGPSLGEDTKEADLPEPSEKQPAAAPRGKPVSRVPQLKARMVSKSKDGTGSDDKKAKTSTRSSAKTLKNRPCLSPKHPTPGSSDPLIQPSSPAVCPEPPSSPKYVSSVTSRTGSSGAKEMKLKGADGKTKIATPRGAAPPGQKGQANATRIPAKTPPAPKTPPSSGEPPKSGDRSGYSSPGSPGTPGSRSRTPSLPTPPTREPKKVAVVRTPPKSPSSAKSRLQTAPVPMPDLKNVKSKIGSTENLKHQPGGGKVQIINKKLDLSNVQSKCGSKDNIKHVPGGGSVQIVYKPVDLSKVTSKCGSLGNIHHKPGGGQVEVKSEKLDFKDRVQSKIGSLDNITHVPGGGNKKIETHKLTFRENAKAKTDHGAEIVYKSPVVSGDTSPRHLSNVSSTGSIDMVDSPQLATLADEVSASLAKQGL
row,SMILES,Potency
1,Clc1ccc(COC(Cn2ccnc2)c2ccc(Cl)cc2Cl)c(Cl)c1 (stereo not given),"inconclusive: 39.8 µM [inhibitor, single point] and inconclusive: 14.1 µM [inhibitor, partial curve]"
2,CCCc1cc2c(n1Cc1cccc(Cl)c1)C(C)C1CN(C(=O)c3ccccc3)C(C)(C(=O)OC)C21 (stereo not given),"inconclusive: 28.2 µM [inhibitor, single point]"
3,CC(=O)OC1CC[C@@]2(C)C3CC[C@]4(C)C(=O)CCC4C3CC[C@H]2C1 (stereo not given in full),"inconclusive: 2 µM [inhibitor, full curve, poor fit]"
4,N#C/C(=C\c1ccc(N2CCCCC2)c([N+](=O)[O-])c1)c1nn(-c2ccccc2)c(N)c1C#N,"inconclusive: 4.47 µM [inhibitor, partial curve]"
5,COC(=O)c1[nH]c2ccc(C)cc2c1NC(=O)Oc1ccccc1,"inconclusive: 17.8 µM [inhibitor, partial curve]"
6,CN1CCN(c2c(F)cc([N+](=O)[O-])c(N)c2Br)CC1,"inconclusive: 11.2 µM [inhibitor, partial curve]"
7,Cc1c(C(=O)N2CCC(Cc3ccccc3)CC2)sc2ncnc(N3CCC(C)CC3)c12,"inconclusive: 8.91 µM [inhibitor, partial curve, poor fit]"
8,O=C1NC(=O)C(=Cc2coc3ccc(O)cc3c2=O)C(=O)N1,"inconclusive: 8.91 µM [inhibitor, partial curve]"
9,CSC(=Nc1ccccc1)c1c(O)n(C)c(=O)n(C)c1=O,"inconclusive: 35.5 µM [inhibitor, single point]"
10,CCCCC/C=C\C/C=C\C/C=C\C/C=C\CCCC(=O)NCCc1ccc(O)c(O)c1,"inconclusive: 28.2 µM [inhibitor, partial curve]"
11,COC(=O)C1C/C(=N\NS(=O)(=O)c2ccc(C)cc2)c2sccc2C1 (stereo not given),"inconclusive: 31.6 µM [inhibitor, single point]"
12,CC[N+](C)(CC)CCCCOc1ccc2c(c1)C(=O)c1cc(OCCCC[N+](C)(CC)CC)ccc1-2,"inconclusive: 25.1 µM [inhibitor, partial curve]"
13,COc1ccccc1OCCCn1cc(C(=O)C2CC2)c2ccccc21,"inconclusive: 12.6 µM [inhibitor, partial curve]"
14,CCOP1(=S)Oc2cc3c(cc2C(C(=O)OC)(C(F)(F)F)O1)OCO3 (stereo not given),"inconclusive: 39.8 µM [inhibitor, single point]"
15,O=C(OCC1O[C@@H](OC(=O)c2cc(O)c(O)c(O)c2)[C@@H](OC(=O)c2cc(O)c(O)c(O)c2)[C@@H](OC(=O)c2cc(O)c(O)c(O)c2)[C@@H]1OC(=O)c1cc(O)c(O)c(O)c1)c1cc(O)c(O)c(O)c1 (stereo not given in full),active: 11.2 µM
